From PubChem BioAssay AID1460 (National Center for Advancing Translational Sciences (NCATS), 2008)
In all, about 270,000 compounds went through this assay and about 5,800 (2.1%) were called active. This list was built around the results that the source calls inconclusive (neither active nor inactive); the mix of calls is not that of the screen. The call rests on the fitted dose curve; in most records, active means well fitted inhibition curve with a large enough effect; inconclusive means small, poorly fitted or top-dose-only effect; inactive means flat fitted curve, though single readings scatter. A potency beside an inconclusive call is a rough fit, not a confirmed value.
Further: nearly all actives have a fitted effect of over 55% in size.
Potency means the concentration at half of the fitted maximal effect; tags describe the fitted curve by direction and shape.

Each molecule was assayed against Microtubule-associated protein tau (Homo sapiens) (UniProt P10636) (assay: qHTS for Inhibitors of Tau Fibril Formation, Thioflavin T Binding). Conditions: recombinant tau K18 P301L, heparin-induced fibrillization, ThT fluorescence; series mostly up to 57.4 µM.
Chain of UniProt P10636 (P10636 whole entry, looked up): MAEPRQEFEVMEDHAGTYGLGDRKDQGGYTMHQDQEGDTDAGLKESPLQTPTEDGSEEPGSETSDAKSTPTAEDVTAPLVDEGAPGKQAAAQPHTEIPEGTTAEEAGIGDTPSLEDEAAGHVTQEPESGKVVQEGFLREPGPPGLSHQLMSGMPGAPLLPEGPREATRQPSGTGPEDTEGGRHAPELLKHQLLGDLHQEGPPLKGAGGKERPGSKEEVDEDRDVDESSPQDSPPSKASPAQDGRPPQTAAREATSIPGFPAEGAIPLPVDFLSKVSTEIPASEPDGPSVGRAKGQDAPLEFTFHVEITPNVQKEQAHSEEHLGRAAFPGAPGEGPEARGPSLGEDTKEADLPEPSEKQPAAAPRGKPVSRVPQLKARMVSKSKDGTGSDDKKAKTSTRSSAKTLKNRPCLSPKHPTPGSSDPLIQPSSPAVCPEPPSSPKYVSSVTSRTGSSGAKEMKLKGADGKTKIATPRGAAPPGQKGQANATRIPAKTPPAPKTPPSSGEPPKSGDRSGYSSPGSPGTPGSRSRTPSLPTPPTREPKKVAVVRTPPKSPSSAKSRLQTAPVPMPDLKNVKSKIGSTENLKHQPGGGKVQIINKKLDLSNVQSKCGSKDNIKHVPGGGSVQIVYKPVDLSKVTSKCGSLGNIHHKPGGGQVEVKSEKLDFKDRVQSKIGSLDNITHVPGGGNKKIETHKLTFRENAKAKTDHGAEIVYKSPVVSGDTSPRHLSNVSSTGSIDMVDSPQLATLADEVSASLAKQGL
Outline: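 Using a mix of unlabeled (15 uM) and Alexa 594-labeled (0.24 uM) tau K18 P301L, heparin-triggered fibrillization over 6 hr at 37 C was scored by ThT fluorescence.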
`COc1ccc(NC(=S)N2CCC(c3nc4ccc(Cl)cc4[nH]3)CC2)c(OC)c1` was tested, and the Potency was inconclusive: 8.91 µM [inhibitor, partial curve]. For `O=C(Nc1ccc2sc3ccccc3c(=O)c2c1)c1ccccc1Cl`, the Potency was inconclusive: 8.91 µM [inhibitor, partial curve]. With `CCOc1ccccc1NC(=O)c1cc2cc(C)ccc2n1C` the Potency was inconclusive: 14.1 µM [inhibitor, single point]. With `Cc1ccc(NC(=O)Nc2nc3ccccc3s2)cc1NC(=O)Nc1nc2ccccc2s1` the Potency was inconclusive: 28.2 µM [activator, partial curve]. For `CC1CCN(S(=O)(=O)c2ccc(C(=O)Nc3nc4ccc(F)cc4s3)cc2)CC1`, the Potency was “inactive”. For `CCOC(=O)c1nnc(-c2ccccc2)nc1Oc1ccc(Cl)cc1`, the Potency was inconclusive: 15.8 µM [inhibitor, partial curve]. With `COc1ccccc1N1CCN(Cc2nc(-c3ccc(F)cc3)oc2C)CC1` the Potency was inconclusive: 3.55 µM [inhibitor, partial curve, poor fit]. For `COc1ccc2[nH]cc(CCNC(=O)Nc3cccc(F)c3)c2c1`, the Potency was inconclusive: 31.6 µM [inhibitor, partial curve]. `COc1cccc(C2C(C(=O)c3cc4ccccc4o3)=C(O)C(=O)N2c2cc(C)on2)c1OC` (stereo unspecified) was tested, and the Potency was inconclusive: 17.8 µM [inhibitor, partial curve]. In the case of `CC(=O)N=Cc1c(C)c(C#N)c(=O)n(C)c1O`, the Potency is reported as inconclusive: 12.6 µM [inhibitor, partial curve]. With `CC(C)c1cccc(C(C)C)c1NC(=O)Cn1c(=O)cnc2ccccc21` the Potency was inconclusive: 39.8 µM [inhibitor, single point]. `Cc1ccc(C(=O)Nc2ccc3c(c2)CCC3)o1` was tested, and the Potency was inconclusive: 14.1 µM [inhibitor, partial curve, poor fit]. With `CCOc1ccccc1NC(=O)Cc1csc(COc2cccc(C)c2)n1` the Potency was inconclusive: 35.5 µM [inhibitor, single point]. With `COc1cc(/C=C(/C#N)c2nc3ccccc3[nH]2)ccc1OCC(=O)Nc1ccccc1C` the Potency was inconclusive: 3.16 µM [inhibitor, full curve]. `CCN(CC)CC(=O)Nc1ccc(C)cc1Br` was tested, and the Potency was inconclusive: 3.55 µM [inhibitor, single point]. With `Cc1ccc(C)n1-n1cnc2sc(-c3ccccc3)cc2c1=O` the Potency was “inactive”. `O=c1[nH]c(SCc2n[nH]c(=S)n2-c2ccccc2)nc2sc3c(c12)CCC3` was tested, and the Potency was inconclusive: 15.8 µM [inhibitor, partial curve]. With `CCN1CCN(CCOc2ccccc2-c2ccccc2)CC1` the Potency was “inactive”. For `CC1CCCN(CC(O)CN)C1` (stereo unspecified), the Potency was “inactive”. `O=C(N/N=C/c1ccncc1)c1ccc(OCc2ccccc2)cc1` was tested, and the Potency was inconclusive: 0.224 µM [inhibitor, full curve]. In the case of `CCOC(=O)c1c(NC(=O)c2cc(-c3ccc(Cl)cc3)on2)sc2c1CCCC2`, the Potency is reported as inconclusive: 39.8 µM [inhibitor, single point]. In the case of `Cc1cc2c(cc1C)CSC(c1ccccc1O)SC2`, the Potency is reported as inconclusive: 31.6 µM [inhibitor, partial curve, poor fit]. For `CCOC(=O)CC1=C(C(=O)OCC)C(c2cccnc2)C(C#N)=C(N)O1` (stereo unspecified), the Potency was inconclusive: 25.1 µM [inhibitor, single point]. `Cc1cc(C)c2cc(C#N)c(N3CCCC3)nc2c1` was tested, and the Potency was “inactive”. For `CCOc1ccc(-c2[nH]ncc2-c2ccc(OC)c(OC)c2)c(O)c1`, the Potency was “inactive”. In the case of `O=c1c2ccccc2nc(/C=C/c2c[nH]c3ccccc23)n1CCO`, the Potency is reported as inconclusive: 20 µM [inhibitor, partial curve]. For `Cc1ccc(N(CC(=O)NCCSc2ccccn2)S(C)(=O)=O)cc1`, the Potency was inconclusive: 20 µM [inhibitor, single point]. For `CCn1cc(CNC(=O)c2cc(COc3ccc(F)cc3Cl)on2)cn1`, the Potency was inconclusive: 15.8 µM [inhibitor, single point]. With `NC(=S)N=Nc1c(O)n(Cc2ccc(Br)cc2)c2ccccc12` the Potency was “inactive”. With `COc1ccc(C[C@H]2c3cc(O)c(OC)cc3CC[N+]2(C)[O-])cc1O` (stereo partly specified) the Potency was inconclusive: 20 µM [inhibitor, single point]. With `Cc1ccc(OCC(=O)Nc2ccc3c(c2)nc2n3CCOC2)cc1` the Potency was inconclusive: 3.55 µM [inhibitor, full curve]. With `CN(C)c1ccc(/C=C2\CCCCC2=O)cc1` the Potency was inconclusive: 2.82 µM [inhibitor, partial curve]. In the case of `C/C(=N\Nc1ccc(F)cc1F)c1ccc(Br)s1`, the Potency is reported as inconclusive: 10 µM [inhibitor, partial curve]. With `CCCCN1CCC(n2c(=O)[nH]c3ccccc32)CC1` the Potency was “inactive”. For `CCN1CCN(C(c2ccccn2)c2c(NC(=O)c3ccccc3)sc(C)c2C)CC1` (stereo unspecified), the Potency was inconclusive: 12.6 µM [inhibitor, partial curve]. For `O=C(COc1cccc2ccccc12)N/N=C/C=C/c1ccccc1`, the Potency was inconclusive: 3.16 µM [inhibitor, full curve, poor fit]. In the case of `CC(=O)c1cccc(Nc2nn(-c3ccc(OC(F)(F)F)cc3)nc2C(C)=O)c1`, the Potency is reported as “inactive”. `COc1ccc(-c2ccc(CCC(=O)O)n2CC(=O)Nc2cccc(Cl)c2C)cc1` was tested, and the Potency was inconclusive: 35.5 µM [inhibitor, single point]. With `CCOc1ccc(NCc2nnc(SCc3ccc(Cl)cc3)n2-c2ccccc2)cc1` the Potency was inconclusive: 14.1 µM [inhibitor, partial curve]. In the case of `C#Cc1ccc([C@@H]2C=C(C(=O)OCC=C)O[C@H](OCCCCO)C2)cc1`, the Potency is reported as inconclusive: 35.5 µM [inhibitor, single point]. In the case of `O=C1c2nc3ccccn3c2C(=O)N1Cc1ccccc1`, the Potency is reported as “inactive”. With `CN(C)c1ccc(/C=C/c2cc[n+](C)cc2)cc1` the Potency was active: 3.98 µM. For `Cc1ncsc1C(=O)N1N=C2/C(=C/c3ccccc3)CCCC2C1c1ccccc1` (stereo unspecified), the Potency was “inactive”. `C#CCOCCOCCOCCNc1nc(N2CCN(C(=O)[C@H](Cc3cc4ccccc4[nH]3)n3cc([C@@H](N)C(C)CC)nn3)CC2)nc(N2CCN(C(=O)[C@H](CCCCN)n3cc([C@@H](N)CC(C)C)nn3)CC2)n1` (stereo partly specified) was tested, and the Potency was inconclusive: 35.5 µM [inhibitor, single point]. `CC(C)c1ccc(-c2nnc(N)s2)cc1` was tested, and the Potency was “inactive”. With `Nc1nonc1C(=O)NCCNCc1c(OCc2ccccc2F)ccc2ccccc12` the Potency was inconclusive: 25.1 µM [inhibitor, single point]. In the case of `COc1ccc(NC(=O)C(C)Sc2cc(-c3ccccc3)nc(C)n2)cc1Cl` (stereo unspecified), the Potency is reported as “inactive”. In the case of `CCOc1ccccc1N1CC(O)=C(c2nc3ccccc3s2)C1=N`, the Potency is reported as inconclusive: 28.2 µM [inhibitor, single point]. With `COc1ccc(-c2cc(C(=O)NCCc3ccc(OC)c(OC)c3)c3ccccc3n2)cc1` the Potency was inconclusive: 39.8 µM [inhibitor, single point]. With `CN(C)C(=S)Nn1c(-c2ccccc2)nc2ccccc2c1=O` the Potency was “inactive”. For `N/C(=N\OC(=O)c1cccc2ccccc12)c1cccc([N+](=O)[O-])c1`, the Potency was “inactive”. For `O=C1CN(C(=O)Nc2ccccc2Cl)C(c2ccccc2)c2c(sc3c2CCCC3)N1` (stereo unspecified), the Potency was “inactive”. For `Cc1nc(OCc2ccccc2)c2sc3nc4c(cc3c2n1)COC(C)(C)C4`, the Potency was “inactive”. With `COc1ccc2c(c1)C(=O)[C@H](OC(=O)Nc1ccc(C)c(Br)c1)[C@@H](c1ccc(OC)c(Br)c1)O2` the Potency was “inactive”. In the case of `CN1CCN(C(c2cccnc2)c2ccc3cccnc3c2O)CC1` (stereo unspecified), the Potency is reported as “inactive”. `O=C(CNC1CCCC1)Nc1ccc(N2CCCCCC2)cc1` was tested, and the Potency was “inactive”. For `O=Nc1c(O)n(Cc2ccc(Cl)cc2)c2ccccc12`, the Potency was “inactive”. With `CCCN1CC(CSC)C[C@H]2c3cccc4[nH]cc(c34)C[C@H]21` (stereo partly specified) the Potency was “inactive”. With `C#CCOCCOCCOCCNc1nc(N2CCN(C(=O)[C@H](Cc3cc4ccccc4[nH]3)n3cc([C@@H](N)Cc4ccc(O)cc4)nn3)CC2)nc(N2CCN(C(=O)[C@H](Cc3cc4ccccc4[nH]3)n3cc([C@@H](N)CC(C)C)nn3)CC2)n1` the Potency was inconclusive: 15.8 µM [inhibitor, partial curve]. For `COc1cccc(N2CCN(C(=O)c3ccc4nc(N5CCCCC5)sc4c3)CC2)c1`, the Potency was inconclusive: 15.8 µM [inhibitor, partial curve]. For `CCn1cc(C(=O)N2CCc3ccccc32)c(=O)c2cc(S(=O)(=O)N3CCCC3)ccc21`, the Potency was inconclusive: 7.94 µM [inhibitor, single point]. With `CCc1cc2c(cc3c(=O)n(CC(=O)NC4CCCCC4)ncn32)s1` the Potency was “inactive”. For `COc1ccc(-n2ccn(Cc3ccccc3C)c(=O)c2=O)cc1`, the Potency was inconclusive: 12.6 µM [inhibitor, partial curve]. `O=C1c2ccccc2-c2onc3ccc(NCc4ccco4)c1c23` was tested, and the Potency was active: 3.16 µM. For `Cc1nn(Cc2ccc(Cl)cc2Cl)c(C)c1NC(=O)c1sc2ccccc2c1Cl`, the Potency was “inactive”. In the case of `Cc1[nH]n(-c2ccccc2)c(=O)c1/C=C1/C=c2ccccc2=N1`, the Potency is reported as active: 2.24 µM. In the case of `NC(=O)c1ccccc1O`, the Potency is reported as inconclusive: 8.91 µM [inhibitor, single point]. With `CCN(CC)S(=O)(=O)c1ccc(/C=C/C(=O)Nc2cccc(F)c2)cc1` the Potency was inconclusive: 8.91 µM [activator, partial curve, poor fit]. For `CC1(C)Cc2c(c(N3CCCC3)[nH]c(=S)c2C#N)CO1`, the Potency was “inactive”. In the case of `COc1ccc(S(=O)(=O)Nc2cc3c(cc2N2CCOCC2)n(C)c(=O)n3C)cc1`, the Potency is reported as inconclusive: 20 µM [inhibitor, single point]. `COC(=O)/C=C1\SC(=Nc2ccc(OC)cc2)NC1=O` was tested, and the Potency was inconclusive: 11.2 µM [inhibitor, partial curve].
